PubChem BioAssay AID1347120 (National Center for Advancing Translational Sciences (NCATS), 2019)
Screen size: about 390,000 compounds; about 930 (0.24%) were called active. The inconclusive results got no clear call from the source; some entries with a clear call stand among them for comparison. The call rests on the fitted dose curve; in most records, active means well fitted activation curve with a large enough effect; inconclusive means small, poorly fitted or top-dose-only effect; inactive means no such curve, though single readings can be large or run the other way. Where the call is inconclusive, the potency comes from a doubtful curve fit.

Experiment: qHTS for Suppressors of FUS Proteinopathy: Primary screen using FUS-linked yeast assay; further: nearly all actives have a fitted effect of over 55% in size
Details: S. cerevisiae FUS-expressing, OD600, 24 h; Potency: growth rescue; series mostly up to 76.6 µM
Procedure, shortened: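 Compound concentration series was pinned onto galactose-induced FUS-expressing yeast seeded at OD 0.005. Plates sat 24hr at 30C; absorbance at 600 nm gave growth. DMSO served as background control.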
Potency means the concentration at half of the fitted maximal effect; tags describe the fitted curve by direction and shape.

Q: For `CC(C)CC1C(=O)N(Cc2cn(CCC3OCCO3)nn2)CCS(=O)(=O)N1Cc1ccc(-c2cccc(N(C)C)c2)cc1` (stereo not drawn), which Potency is on record?
A: The Potency was inconclusive: 22.4 µM [activator, partial curve, poor fit].

Q: Which Potency does the source give for `Cc1cccc(NC(=O)c2nc[nH]c2C(=O)NCCCCCNC(=O)OC(C)(C)C)c1` here?
A: The Potency was inconclusive: 22.4 µM [activator, single point].

Q: Which Potency does the source give for `CCC(C(=O)N1CCN(c2cccc(Cl)c2)CC1)c1ccccc1` (stereo not drawn) here?
A: Its Potency is “inactive”.

Q: For `C#CCN(C[C@H]1[C@H](OC(=O)NCc2ccc(OC)c(OC)c2)[C@H](OC(=O)NCc2ccc(OC)c(OC)c2)C[C@@H](C(=O)OC)[C@H]1C(=O)OC)S(=O)(=O)c1ccc(C)cc1`, which Potency is on record?
A: The Potency was inconclusive: 25.1 µM [activator, partial curve, poor fit].

Q: Which Potency does the source give for `Cc1ccc(C)c(N2CCN(S(=O)(=O)c3ccc4c(c3)C(C(C)C)C(=O)N4)CC2)c1` (stereo not drawn) here?
A: The Potency was inconclusive: 14.1 µM [activator, partial curve].

Q: Which Potency does the source give for `O=C(CC1S/C(=N\S(=O)(=O)c2ccccc2)N(c2ccccc2)C1=O)Nc1ccc(F)cc1` (stereo not drawn) here?
A: The Potency was active: 17.8 µM.

Q: For `COc1cccc(-c2nc(CS(=O)(=O)CC(=O)N3CCN(c4cc(C)ccc4C)CC3)c(C)o2)c1`, which Potency is on record?
A: The Potency was inconclusive: 35.5 µM [activator, single point].

Q: Which Potency does the source give for `N#Cc1c(-c2ccccc2)nc2n(c1=O)CCS2` here?
A: The Potency was “inactive”.

Q: With `Cc1cc(C)nc(Sc2ncnc3sc4c(c23)CCC4)n1` as the compound, how does the Potency read?
A: Its Potency is “inactive”.

Q: With `CC(C)(C)c1ccc(C(=O)NCCc2csc(-c3ccc(Cl)cc3)n2)cc1` as the compound, how does the Potency read?
A: Its Potency is “inactive”.

Q: Which Potency does the source give for `CCOc1ccc(CCNC(=O)c2oc(=O)c3ccccc3c2-c2ccc(C)cc2)cc1OCC` here?
A: The Potency was inconclusive: 5.01 µM [activator, full curve, poor fit].

Q: Which Potency does the source give for `COc1ccc(CCn2c(S)nc3ccccc3c2=O)cc1` here?
A: Its Potency is “inactive”.

Q: Which Potency does the source give for `COC(=O)c1cc(CNC(=O)Cc2ccsc2)ccc1OC` here?
A: The Potency was “inactive”.

Q: With `Oc1c(Br)cc(/C=N/n2c(-c3ccccc3)n[nH]c2=S)c(O)c1Br` as the compound, how does the Potency read?
A: The Potency was inconclusive: 25.1 µM [activator, single point].

Q: With `O=C(COc1ccc(F)cc1)Nc1nc(-c2ccccn2)cs1` as the compound, how does the Potency read?
A: Its Potency is “inactive”.

Q: For `Cc1ccc(-c2ccc(CN3C(C)C(=O)N(Cc4cn(CCC5OCCCO5)nn4)CCS3(=O)=O)cc2)cc1` (stereo not drawn), which Potency is on record?
A: The Potency was inconclusive: 28.2 µM [activator, single point].

Q: For `O=c1c2ccccc2n(Cc2ccco2)n1[C@@H](Cc1ccccc1)Cn1cc(C2CCCC2)nn1`, which Potency is on record?
A: The Potency was inconclusive: 14.1 µM [activator, partial curve, poor fit].

Q: With `Cc1ccc(C2C(C(=O)c3cccs3)=C(O)C(=O)N2c2nnc(C)s2)cc1` (stereo not drawn) as the compound, how does the Potency read?
A: The Potency was inconclusive: 39.8 µM [activator, partial curve, poor fit].
